PubChem BioAssay AID624170 (National Center for Advancing Translational Sciences (NCATS), 2012)
Among all 410,000 compounds or so, about 850 (0.21%) were called active. Inconclusive means that the source gave no clear call. Such entries were picked first, then a sample of the others. Calls come from the whole dose curve; as a rule, active = well fitted inhibition curve with a large enough effect; inconclusive = small, poorly fitted or top-dose-only effect, or another doubt; inactive = no such curve, though single readings can be large or run the other way. No potency is given beside an inconclusive call; the fits are too rough.

What follows are compounds tested against Glutaminase kidney isoform, mitochondrial (Homo sapiens) (UniProt O94925) (assay: qHTS for Inhibitors of Glutaminase (GLS)). Conditions: GLS enzymatic activity, qHTS titration; series mostly up to 45.5 µM.
Sequence of UniProt O94925 (O94925 whole entry, looked up, canonical isoform): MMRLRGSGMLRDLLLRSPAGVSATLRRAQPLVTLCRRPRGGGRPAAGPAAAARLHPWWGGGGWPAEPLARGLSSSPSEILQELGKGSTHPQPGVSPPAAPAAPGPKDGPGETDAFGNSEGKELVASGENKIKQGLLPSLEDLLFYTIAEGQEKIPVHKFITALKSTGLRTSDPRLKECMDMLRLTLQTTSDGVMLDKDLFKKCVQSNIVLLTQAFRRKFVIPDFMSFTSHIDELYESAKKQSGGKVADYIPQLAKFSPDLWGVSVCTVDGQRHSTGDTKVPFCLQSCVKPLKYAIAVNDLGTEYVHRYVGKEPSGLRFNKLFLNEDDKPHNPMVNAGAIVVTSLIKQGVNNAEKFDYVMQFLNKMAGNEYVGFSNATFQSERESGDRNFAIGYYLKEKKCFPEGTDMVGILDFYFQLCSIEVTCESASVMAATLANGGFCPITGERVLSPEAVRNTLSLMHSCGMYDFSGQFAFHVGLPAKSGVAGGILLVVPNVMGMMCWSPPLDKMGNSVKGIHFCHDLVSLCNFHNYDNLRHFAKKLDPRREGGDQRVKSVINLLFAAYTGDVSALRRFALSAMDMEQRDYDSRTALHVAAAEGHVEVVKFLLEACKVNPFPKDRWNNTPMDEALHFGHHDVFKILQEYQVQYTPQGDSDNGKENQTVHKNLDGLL
In short: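 Human kidney-isoform GLS in 45 mM KH2PO4 pH 8.2, 0.02% Tween-20, with compound, started with 1mM L-Glutamine (added stock). Glutamate oxidase/HRP/Amplex red coupled fluorescence read at start and after 30 min at RT.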
Potency is the fitted concentration of half-maximal effect; tags give direction and shape of the fitted curve.

SMILES | Potency
O=C(O)c1cc(NN=C2c3ccccc3-c3ccccc32)ccc1Cl | inconclusive [inhibitor, single point]
CN(C)S(=O)(=O)c1cccc(NC(=O)C2Cc3ccccc3CN2C(=O)c2ccco2)c1 (configuration not stated) | inconclusive [inhibitor, single point]
O=C(Nc1cccc(F)c1)c1ccc(-c2ccccc2)s1 | inactive
S=c1[nH]nc(-c2ccccn2)n1/N=C/c1ccc(Cl)c(Cl)c1 | inconclusive [inhibitor, partial curve]
COc1cc(C2NC(=S)NC3=C2CCc2ccccc23)cc(OC)c1OC (configuration not stated) | inactive
CO/N=C(\C(=O)N[C@@H]1C(=O)N2C(C(=O)O)=C(COC(N)=O)CS[C@H]12)c1ccco1 | inconclusive [inhibitor, single point]
O=C1N=c2ccccc2=C1c1c(O)[nH]c2c(C(F)(F)F)cccc12 | inconclusive [inhibitor, partial curve]
CCOC(=O)C1Nc2ccc(C)cc2C2C=CCC12 (configuration not stated) | inactive
O=C(Nc1ccccc1O)c1csc2c1CCCC2 | inconclusive [inhibitor, partial curve]
Clc1cccc(-c2nn3c(Cn4cnc5ccccc54)nnc3s2)c1 | inactive
COc1ccc(CNC(=O)CCc2nc(-c3ccc(C)cc3)no2)c(OC)c1 | inactive
CC(C)C[C@H]1CN([C@@H](CC(C)C)CN2CCCC2CN2C(=S)NC[C@@H]2Cc2ccc(O)cc2)C(=S)N1CC1CCCCCC1 (some centres not stated) | inactive
O=[N+]([O-])/C(C(Cl)=C(Cl)Cl)=C1\Nc2ccccc2O1 | inconclusive [inhibitor, single point]
Cc1nnc2sc(-c3ccc(-c4ccc(Cl)c(C(F)(F)F)c4)o3)nn12 | inconclusive [inhibitor, partial curve, poor fit]
COC(=O)c1ccc(NC2=CC(=O)CC(C)(C)C2)cc1 | inconclusive [inhibitor, single point]
CCOC(=O)c1nc(N)c(C(=O)OCC)[nH]1 | inconclusive [inhibitor, single point]
O=C(Nc1ccon1)C1CCN(S(=O)(=O)c2cccs2)CC1 | inconclusive [inhibitor, single point]
COc1ccc(-c2cc(C(F)(F)F)n3nc(C(=O)N(C)Cc4ccccc4)cc3n2)cc1OC | inconclusive [inhibitor, single point]
CC1(C)C(c2ccccc2)=NC(c2ccc(Br)cc2)N1O (configuration not stated) | inconclusive [inhibitor, partial curve]
Cc1ccccc1C(=O)OC1OC(=O)C(Cl)=C1Nc1ccc(C(=O)O)cc1 (configuration not stated) | inconclusive [inhibitor, single point]
O=S1(=O)C=C(Sc2nnc(-c3ccccc3)o2)c2ccccc21 | inactive
CN(Cc1ccccc1)S(=O)(=O)c1ccc(OCC(=O)N2CCOCC2)cc1 | inconclusive [inhibitor, single point]
